# Assay results: the supplement of paper PMC8728848
# This is one part of the list.
# Experiments:
# Experiment in all cases: glycan array binding signal (z-score within array); higher = stronger binding
# Settings in all cases: glycan notation: IUPAC condensed, linker removed
# [1] = biological target: Gal(b1-3)GlcNAc(b1-3)GalNAc
# How it was run: (§1)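 Columns mapping to the same glycan were averaged after glycan names were converted to IUPAC-condensed notation. The data come from 3228 arrays in the Consortium for Functional Glycomics database, limited to those with an available protein sequence. Binding is reported as a within-array Z-score averaged across arrays of one protein sequence and across linkers.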
# [2] = biological target: Gal(b1-3)GlcNAc(b1-6)Gal(b1-4)GlcNAc
# How it was run: as §1
# [3] = biological target: Gal(b1-3)[Fuc(a1-4)]GlcNAc
# How it was run: as §1
# [4] = biological target: Gal(b1-3)[Fuc(a1-4)]GlcNAc(b1-2)Man(a1-3)[Gal(b1-3)[Fuc(a1-4)]GlcNAc(b1-2)Man(a1-6)]Man(b1-4)GlcNAc(b1-4)GlcNAc
# How it was run: as §1
# [5] = biological target: Gal(b1-3)[Fuc(a1-4)]GlcNAc(b1-2)Man(a1-3)[Gal(b1-3)[Fuc(a1-4)]GlcNAc(b1-2)Man(a1-6)]Man(b1-4)GlcNAc(b1-4)[Fuc(a1-6)]GlcNAc
# How it was run: as §1
# [6] = biological target: Gal(b1-3)[Fuc(a1-4)]GlcNAc(b1-3)Gal(b1-3)[Fuc(a1-4)]GlcNAc
# How it was run: as §1
# [7] = biological target: Gal(b1-3)[Fuc(a1-4)]GlcNAc(b1-3)Gal(b1-4)GlcNAc
# How it was run: as §1
# [8] = biological target: Gal(b1-3)[Fuc(a1-4)]GlcNAc(b1-3)Gal(b1-4)[Fuc(a1-3)]GlcNAc
# How it was run: as §1
# [9] = biological target: Gal(b1-3)[GlcNAc(b1-6)]GalNAc
# How it was run: as §1
# [10] = biological target: Gal(b1-3)[Neu5Ac(a2-6)]GalNAc
# How it was run: as §1
# [11] = biological target: Gal(b1-3)[Neu5Ac(a2-6)]GlcNAc(b1-6)Gal(b1-4)Glc
# How it was run: as §1
# [12] = biological target: Gal(b1-3)[Neu5Ac(b2-6)]GalNAc
# How it was run: as §1
# [13] = biological target: Gal(b1-4)GalNAc(a1-3)[Fuc(a1-2)]Gal(b1-4)GlcNAc
# How it was run: as §1
# [14] = biological target: Gal(b1-4)GalNAc(b1-3)[Fuc(a1-2)]Gal(b1-4)GlcNAc
# How it was run: as §1
# Gal(b1-4)Glc = biological target: Gal(b1-4)Glc
# How it was run: as §1
# Gal(b1-4)Glc6S = biological target: Gal(b1-4)Glc6S
# How it was run: as §1
# Gal(b1-4)GlcNAc = biological target: Gal(b1-4)GlcNAc
# How it was run: as §1
# [15] = biological target: Gal(b1-4)GlcNAc(a1-6)Gal(b1-4)GlcNAc
# How it was run: as §1
# [16] = biological target: Gal(b1-4)GlcNAc(b1-2)Man(a1-3)Man(b1-4)GlcNAc(b1-4)GlcNAc
# How it was run: as §1
# [17] = biological target: Gal(b1-4)GlcNAc(b1-2)Man(a1-3)[Gal(b1-4)GlcNAc(b1-2)Man(a1-6)]Man(b1-4)GlcNAc(b1-4)GlcNAc
# How it was run: as §1
# [18] = biological target: Gal(b1-4)GlcNAc(b1-2)Man(a1-3)[Gal(b1-4)GlcNAc(b1-2)Man(a1-6)]Man(b1-4)GlcNAc(b1-4)[Fuc(a1-6)]GlcNAc
# How it was run: as §1
# [19] = biological target: Gal(b1-4)GlcNAc(b1-2)Man(a1-3)[GlcNAc(b1-2)Man(a1-6)]Man(b1-4)GlcNAc(b1-4)GlcNAc
# How it was run: as §1
# [20] = biological target: Gal(b1-4)GlcNAc(b1-2)Man(a1-3)[Man(a1-6)]Man(b1-4)GlcNAc(b1-4)GlcNAc
# How it was run: as §1
# [21] = biological target: Gal(b1-4)GlcNAc(b1-2)Man(a1-6)Man(b1-4)GlcNAc(b1-4)GlcNAc
# How it was run: as §1
# [22] = biological target: Gal(b1-4)GlcNAc(b1-2)Man(a1-6)[GlcNAc(b1-2)Man(a1-3)]Man(b1-4)GlcNAc(b1-4)GlcNAc
# How it was run: as §1
# [23] = biological target: Gal(b1-4)GlcNAc(b1-2)Man(a1-6)[Man(a1-3)]Man(b1-4)GlcNAc(b1-4)GlcNAc
# How it was run: as §1
# [24] = biological target: Gal(b1-4)GlcNAc(b1-2)[Gal(b1-4)GlcNAc(b1-4)]Man(a1-3)[Gal(b1-4)GlcNAc(b1-2)Man(a1-6)]Man(b1-4)GlcNAc(b1-4)GlcNAc
# How it was run: as §1
# [25] = biological target: Gal(b1-4)GlcNAc(b1-2)[Gal(b1-4)GlcNAc(b1-4)]Man(a1-3)[Gal(b1-4)GlcNAc(b1-2)[Gal(b1-4)GlcNAc(b1-6)]Man(a1-6)]Man(b1-4)GlcNAc(b1-4)GlcNAc
# How it was run: as §1
# [26] = biological target: Gal(b1-4)GlcNAc(b1-3)Gal(b1-3)GlcNAc
# How it was run: as §1
# [27] = biological target: Gal(b1-4)GlcNAc(b1-3)Gal(b1-4)Glc
# How it was run: as §1
# [28] = biological target: Gal(b1-4)GlcNAc(b1-3)Gal(b1-4)GlcNAc
# How it was run: as §1
# [29] = biological target: Gal(b1-4)GlcNAc(b1-3)Gal(b1-4)GlcNAc(b1-3)Gal(b1-4)GlcNAc
# How it was run: as §1
# [30] = biological target: Gal(b1-4)GlcNAc(b1-3)Gal(b1-4)[Fuc(a1-3)]GlcNAc(b1-3)Gal(b1-4)[Fuc(a1-3)]GlcNAc
# How it was run: as §1
# [31] = biological target: Gal(b1-4)GlcNAc(b1-3)GalNAc
# How it was run: as §1
# [32] = biological target: Gal(b1-4)GlcNAc(b1-3)[Gal(b1-4)GlcNAc(b1-6)]Gal(b1-4)GlcNAc
# How it was run: as §1
# [33] = biological target: Gal(b1-4)GlcNAc(b1-3)[Gal(b1-4)GlcNAc(b1-6)]GalNAc
# How it was run: as §1
# [34] = biological target: Gal(b1-4)GlcNAc(b1-3)[GlcNAc(b1-6)]Gal(b1-4)GlcNAc
# How it was run: as §1
# [35] = biological target: Gal(b1-4)GlcNAc(b1-6)Gal(b1-4)GlcNAc
# How it was run: as §1
# [36] = biological target: Gal(b1-4)GlcNAc(b1-6)Gal(b1-4)GlcNAc(b1-6)GalNAc
# How it was run: as §1
# [37] = biological target: Gal(b1-4)GlcNAc(b1-6)GalNAc
# How it was run: as §1
# [38] = biological target: Gal(b1-4)GlcNAc(b1-6)[Gal(b1-3)]GalNAc
# How it was run: as §1
# Gal3S(b1-3)GalNAc = biological target: Gal3S(b1-3)GalNAc
# How it was run: as §1
# Gal3S(b1-3)GlcNAc = biological target: Gal3S(b1-3)GlcNAc
# How it was run: as §1
# [39] = biological target: Gal3S(b1-3)[Fuc(a1-4)]GlcNAc
# How it was run: as §1
# Gal3S(b1-4)Glc = biological target: Gal3S(b1-4)Glc
# How it was run: as §1
binder,measurement,setting,value
"Tachylectin-2 (Tachypleus tridentatus), TAL2_TACTR (protein) VGGESMLRGVYQDKFYQGTYPQNKNDNWLARATLIGKGGWSNFKFLFLSPGGELYGVLNDKIYKGTPPTHDNDNWMGRAKKIGNGGWNQFQFLFFDPNGYLYAVSKDKLYKASPPQSDTDNWIARATEIGSGGWSGFKFLFFHPNGYLYAVHGQQFYKALPPVSNQDNWLARATKIGQGGWDTFKFLFFSSVGTLFGVQGGKFYEDYPPSYAHDNWLARAKLIGNGGWDDFRFLFF",glycan array binding signal (z-score),[1],-0.294
same,glycan array binding signal (z-score),[2],-0.295
same,glycan array binding signal (z-score),[3],-0.291
same,glycan array binding signal (z-score),[4],-0.279
same,glycan array binding signal (z-score),[5],-0.292
same,glycan array binding signal (z-score),[6],-0.338
same,glycan array binding signal (z-score),[7],-0.351
same,glycan array binding signal (z-score),[8],-0.22
same,glycan array binding signal (z-score),[9],-0.2
same,glycan array binding signal (z-score),[10],-0.192
same,glycan array binding signal (z-score),[11],-0.192
same,glycan array binding signal (z-score),[12],-0.221
same,glycan array binding signal (z-score),[13],-0.204
same,glycan array binding signal (z-score),[14],-0.29
same,glycan array binding signal (z-score),Gal(b1-4)Glc,-0.308
same,glycan array binding signal (z-score),Gal(b1-4)Glc6S,-0.341
same,glycan array binding signal (z-score),Gal(b1-4)GlcNAc,-0.262
same,glycan array binding signal (z-score),[15],-0.207
same,glycan array binding signal (z-score),[16],-0.295
same,glycan array binding signal (z-score),[17],-0.201
same,glycan array binding signal (z-score),[18],-0.294
same,glycan array binding signal (z-score),[19],-0.295
same,glycan array binding signal (z-score),[20],-0.294
same,glycan array binding signal (z-score),[21],-0.292
same,glycan array binding signal (z-score),[22],-0.291
same,glycan array binding signal (z-score),[23],-0.294
same,glycan array binding signal (z-score),[24],-0.293
same,glycan array binding signal (z-score),[25],-0.294
same,glycan array binding signal (z-score),[26],-0.348
same,glycan array binding signal (z-score),[27],-0.209
same,glycan array binding signal (z-score),[28],-0.367
same,glycan array binding signal (z-score),[29],-0.338
same,glycan array binding signal (z-score),[30],-0.449
same,glycan array binding signal (z-score),[31],-0.26
same,glycan array binding signal (z-score),[32],-0.43
same,glycan array binding signal (z-score),[33],-0.291
same,glycan array binding signal (z-score),[34],-0.309
same,glycan array binding signal (z-score),[35],-0.323
same,glycan array binding signal (z-score),[36],-0.469
same,glycan array binding signal (z-score),[37],3.79
same,glycan array binding signal (z-score),[38],-0.273
same,glycan array binding signal (z-score),Gal3S(b1-3)GalNAc,-0.323
same,glycan array binding signal (z-score),Gal3S(b1-3)GlcNAc,-0.354
same,glycan array binding signal (z-score),[39],0.014
same,glycan array binding signal (z-score),Gal3S(b1-4)Glc,-0.332
